# Test results as given in PubChem BioAssay (NCATS).
# Where “and” joins values, the source holds several entries; their conditions need not be identical. Identical values can stand only once. Inconclusive results, whose numbers are uncertain, are shown with a selection of clear calls. For some assays here: Potencies beside an inconclusive call are fits to weak or partial responses and may not hold up. Calls of active or inactive are those of the source. The call rests on the fitted dose curve; in most records, active means well fitted curve in the direction sought with a large enough effect; inconclusive means small, poorly fitted or top-dose-only effect, or another doubt; inactive means no such curve, though single readings can be large; an effect the other way counts as inactive or inconclusive.
# What was measured:
# [1] = qHTS of pediatric cancer cell lines to identify multiple opportunities for drug repurposing: Primary screen for OHS-50 cells (AID 1347103); further: nearly all actives have a fitted effect of over 40% in size;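 on activity change, negative = cytotoxic: plate controls were DMSO neutral control for no effect and bortezomib positive control for full effect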
# Procedure, shortened: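 Cells (500-1,000/well) rested 5 h, then received compounds for 48 h; metabolically active cells were measured by CellTiter-Glo luminescence. Final concentrations spanned up to 46 µM (MIPE, 11-point) or 0.59 nM-46 µM (NPC, 8-point) in primary screens, 11-point in follow-ups.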
# [2] = qHTS of pediatric cancer cell lines to identify multiple opportunities for drug repurposing: Primary screen for MG 63 (6-TG R) cells (AID 1347105); conditions: MG 63 (6-TG R) viability, CellTiter-Glo, 48 h; activity change, negative = cytotoxic: at 46 µM (top of the series) unless noted; further: nearly all actives have a fitted effect of over 50% in size; on activity change, negative = cytotoxic: on the % scale 0 is the no-effect control and ±100 the full control effect
# Procedure, shortened: (§1)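 ATP-based luminescence (CellTiter-Glo) quantifies viability after a 48-hour exposure. Compounds are dosed across 8 or 11 final concentrations; DMSO and 2.3 µM bortezomib serve as controls.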
# [3] = qHTS of pediatric cancer cell lines to identify multiple opportunities for drug repurposing: Primary screen for Rh30 cells (AID 1347107); further: nearly all actives have a fitted effect of over 75% in size; on activity change, negative = cytotoxic: on the % scale 0 is the no-effect control and ±100 the full control effect
# Procedure, shortened: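 Cells (500-1,000/well) in growth media were settled 5 h at 37 degrees C, then given compounds for 48 h. Viability was read as CellTiter-Glo luminescence. Primary runs used MIPE at 11 points (0.78 nM-46 µM) and NPC at 8 points (0.59 nM-46 µM); follow-ups used 11 points.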
# [4] = qHTS of pediatric cancer cell lines to identify multiple opportunities for drug repurposing: Primary screen for RD cells (AID 1347104); further: nearly all actives have a fitted effect of over 55% in size;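 on activity change, negative = cytotoxic: plate controls were DMSO for no effect and bortezomib for full effect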
# Procedure, shortened: as §1
# [5] = qHTS of pediatric cancer cell lines to identify multiple opportunities for drug repurposing: Primary screen for Rh41 cells (AID 1347108); further: nearly all actives have a fitted effect of over 70% in size;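 on activity change, negative = cytotoxic: luminescence drop marks cytotoxic hits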
# Procedure, shortened: as §1
# [6] = qHTS of pediatric cancer cell lines to identify multiple opportunities for drug repurposing: Primary screen for control Hh wild type fibroblast cells (AID 1347106); further: nearly all actives have a fitted effect of over 55% in size;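 on activity change, negative = cytotoxic: on the % scale 0 is the no-effect control and ±100 the full control effect; a drop in luminescence marks cytotoxicity and a rise apparent proliferation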
# Procedure, shortened: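 Viability after 48 h compound treatment at 37C, 500-1,000 cells/well, read as ATP luminescence with CellTiter-Glo. Primary screens used 11-point (MIPE, 0.78 nM-46 µM) or 8-point (NPC, 0.59 nM-46 µM) final concentrations; follow-up screens used 11-point dilutions.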
# [7] = qHTS of pediatric cancer cell lines to identify multiple opportunities for drug repurposing: Confirmatory screen for SK-N-MC cells (AID 1347111);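 further: cells exposed to compound for 48 h before the readout; nearly all actives have a fitted effect of over 70% in size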;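 on activity change, negative = cytotoxic: plate controls were DMSO for no effect and bortezomib for full effect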
# Procedure, shortened: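 Metabolically active cells were quantified by ATP-dependent luminescence (CellTiter-Glo, 15 min at room temperature) following 48 h treatment. Cells had been plated at 500-1,000 per well and settled for 5 h beforehand.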
# [8] = qHTS of pediatric cancer cell lines to identify multiple opportunities for drug repurposing: Confirmatory screen for A673 cells (AID 1347110);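 further: cells exposed to compound for 48 h before the viability read; nearly all actives have a fitted effect of over 65% in size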
# Procedure, shortened: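 Forty-eight-hour viability assay. Follow-up compounds ran at 11-point dilutions; positive control bortezomib at 2.3 uM final, neutral control DMSO.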
# Potency means the concentration at half of the fitted maximal effect; tags describe the fitted curve by direction and shape.
smiles,measurement,setting,value
Cc1[nH]c(=O)c(C#N)cc1-c1ccc2nccn2c1,Potency,[1],"inconclusive: 27.3 µM [cytotoxic, partial curve]"
same,Potency,[2],inactive
same,Potency,[3],inactive
CON=C(C(=O)N[C@@H]1C(=O)N2C(C(=O)OCOC(=O)C(C)(C)C)=C(C=Cc3scnc3C)CS[C@H]12)c1csc(N)n1,Potency,[1],inactive
same,Potency,[4],inactive
same,Potency,[5],inactive
[O-][n+]1ccccc1SSc1cccc[n+]1[O-],Potency,[1],active: 0.338 µM
same,Potency,[2],active: 184 nM
same,Potency,[6],active: 11.6 µM
same,Potency,[3],"inconclusive: 82 nM [cytotoxic, full curve, poor fit]"
same,Potency,[5],"inconclusive: 0.082 µM [cytotoxic, full curve]"
Cc1nc(-c2ccc(OCC(C)C)c(C#N)c2)sc1C(=O)O,Potency,[1],inactive
same,Potency,[2],inactive
same,Potency,[3],inactive
O=C(Nc1ccccc1)OCC(CN1CCCCC1)OC(=O)Nc1ccccc1 (stereo not drawn),Potency,[1],"inconclusive: 30.9 µM [cytotoxic, partial curve]"
same,Potency,[2],"inconclusive: 335 nM [cytotoxic, partial curve]"
same,Potency,[3],inactive
same,Potency,[5],"inconclusive: 33.5 µM [cytotoxic, partial curve, poor fit]"
Cc1[nH]c(C=C2C(=O)Nc3ccccc32)c(C)c1CCC(=O)O,Potency,[1],active: 1.22 µM
same,Potency,[2],"inconclusive: 1480 nM [cytotoxic, full curve]"
same,Potency,[3],"inconclusive: 5900 nM [cytotoxic, partial curve]"
same,Potency,[5],"inconclusive: 3.72 µM [cytotoxic, full curve]"
same,Potency,[7],inactive
CCN(CC)C(=S)SSC(=S)N(CC)CC,Potency,[1],"inconclusive: 325 nM [cytotoxic, full curve, poor fit] and inconclusive: 309 nM [cytotoxic, full curve, poor fit]"
same,Potency,[2],"inconclusive: 313 nM [cytotoxic, full curve, poor fit] and inconclusive: 1.06 µM [cytotoxic, partial curve, poor fit]"
same,Potency,[6],active: 166 nM and active: 111 nM and active: 1.19 µM
same,Potency,[3],"inconclusive: 23.5 nM [cytotoxic, full curve] and inconclusive: 55.6 nM [cytotoxic, full curve] and inconclusive: 335 nM [cytotoxic, full curve]"
same,Potency,[5],"active: 13.2 nM and active: 70 nM and inconclusive: 133 nM [cytotoxic, full curve]"
same,Potency,[8],active: 0.522 µM
same,Potency,[7],"inconclusive: 0.329 µM [cytotoxic, full curve, poor fit]"
COc1cc(Oc2ccnc3cc(OC)c(OC)cc23)ccc1NC(=O)NC(C)c1nccs1 (stereo not drawn),Potency,[1],"inconclusive: 3.43 µM [cytotoxic, partial curve]"
same,Potency,[2],"inconclusive: 23500 nM [cytotoxic, partial curve]"
same,Potency,[6],inactive
same,Potency,[5],"inconclusive: 20.9 µM [cytotoxic, partial curve]"
C[N+](C)(C)CC(=O)O,Potency,[1],inactive
same,Potency,[2],inactive
O=c1[nH]cc(F)c(=O)[nH]1,Potency,[1],inactive
same,Potency,[4],"inconclusive: 0.833 µM [cytotoxic, partial curve, poor fit]"
same,Potency,[5],"inconclusive: 18.7 µM [cytotoxic, partial curve, poor fit]"
COc1ccc(C2CC(c3ccccc3)=NN2c2ccc(S(N)(=O)=O)cc2)cc1 (stereo not drawn),Potency,[1],"inconclusive: 43.2 µM [cytotoxic, single point]"
same,Potency,[4],"inconclusive: 18.7 µM [cytotoxic, single point]"
same,Potency,[5],inactive
CC1=C(CO)C(=O)O[C@@H]([C@@H](C)[C@H]2CC[C@H]3[C@@H]4C[C@H]5O[C@]56[C@@H](O)C=CC(=O)[C@]6(C)[C@@H]4CC[C@]23C)C1,Potency,[1],active: 4.85 µM
same,Potency,[2],active: 743 nM
same,Potency,[3],active: 2350 nM
same,Potency,[7],inactive
CCNC(=O)c1noc(-c2cc(C(C)C)c(O)cc2O)c1-c1ccc(CN2CCOCC2)cc1,Potency,[1],active: 0.153 µM
same,Potency,[2],"inconclusive: 23500 nM [cytotoxic, partial curve, poor fit]"
same,Potency,[6],"inconclusive: 0.332 µM [cytotoxic, full curve, poor fit]"
same,Potency,[3],"inconclusive: 296 nM [cytotoxic, full curve]"
same,Potency,[5],active: 0.148 µM
NC(=O)c1cccc2[nH]c(-c3ccc([C@H]4CCCN4)cc3F)nc12,Potency,[1],"inconclusive: 13.7 µM [cytotoxic, partial curve]"
same,"activity change, negative = cytotoxic",[2],inconclusive: -32.4% [cytotoxic]
